# Data from the supplement of paper PMC8728848.
# The other results are listed elsewhere or left out.
# Legend:
# Test in all cases: glycan array binding signal (z-score within array); higher = stronger binding
# Conditions in all cases: glycan notation: IUPAC condensed, linker removed
# [1] = biological target: Neu5Ac(a2-6)Gal(b1-4)GlcNAc(b1-2)Man(a1-3)[Neu5Ac(a2-3)Gal(b1-4)GlcNAc(b1-2)Man(a1-6)]Man(b1-4)GlcNAc(b1-4)GlcNAc
# In short: (§1)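 Negative Z-scores can be read as non-binding. The Z-score is calculated within each array and then averaged across arrays of one protein sequence at different concentrations or buffers and across linkers. Arrays, 3228 in all, were curated from the Consortium for Functional Glycomics database and kept only where the protein sequence was available.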
# [2] = biological target: Neu5Ac(a2-6)Gal(b1-4)GlcNAc(b1-2)Man(a1-3)[Neu5Ac(a2-6)Gal(b1-4)GlcNAc(b1-2)Man(a1-6)]Man(b1-4)GlcNAc(b1-4)GlcNAc
# In short: as §1
# [3] = biological target: Neu5Ac(a2-6)Gal(b1-4)GlcNAc(b1-2)Man(a1-3)[Neu5Ac(a2-6)Gal(b1-4)GlcNAc(b1-2)Man(a1-6)]Man(b1-4)GlcNAc(b1-4)[Fuc(a1-6)]GlcNAc
# In short: as §1
# [4] = biological target: Neu5Ac(a2-6)Gal(b1-4)GlcNAc(b1-2)Man(a1-6)Man(b1-4)GlcNAc(b1-4)GlcNAc
# In short: as §1
# [5] = biological target: Neu5Ac(a2-6)Gal(b1-4)GlcNAc(b1-2)Man(a1-6)[Gal(b1-4)GlcNAc(b1-2)Man(a1-3)]Man(b1-4)GlcNAc(b1-4)GlcNAc
# In short: as §1
# [6] = biological target: Neu5Ac(a2-6)Gal(b1-4)GlcNAc(b1-2)Man(a1-6)[GlcNAc(b1-2)Man(a1-3)]Man(b1-4)GlcNAc(b1-4)GlcNAc
# In short: as §1
# [7] = biological target: Neu5Ac(a2-6)Gal(b1-4)GlcNAc(b1-2)Man(a1-6)[Man(a1-3)]Man(b1-4)GlcNAc(b1-4)GlcNAc
# In short: as §1
# [8] = biological target: Neu5Ac(a2-6)Gal(b1-4)GlcNAc(b1-2)[Neu5Ac(a2-6)Gal(b1-4)GlcNAc(b1-4)]Man(a1-3)[GlcNAc(b1-4)][Neu5Ac(a2-6)Gal(b1-4)GlcNAc(b1-2)[Neu5Ac(a2-6)Gal(b1-4)GlcNAc(b1-6)]Man(a1-6)]Man(b1-4)GlcNAc(b1-4)GlcNAc
# In short: as §1
# [9] = biological target: Neu5Ac(a2-6)Gal(b1-4)GlcNAc(b1-2)[Neu5Ac(a2-6)Gal(b1-4)GlcNAc(b1-4)]Man(a1-3)[GlcNAc(b1-4)][Neu5Ac(a2-6)Gal(b1-4)GlcNAc(b1-4)Man(a1-6)]Man(b1-4)GlcNAc(b1-4)GlcNAc
# In short: as §1
# [10] = biological target: Neu5Ac(a2-6)Gal(b1-4)GlcNAc(b1-2)[Neu5Ac(a2-6)Gal(b1-4)GlcNAc(b1-6)]Man(a1-6)[Neu5Ac(a2-6)Gal(b1-4)GlcNAc(b1-2)Man(a1-3)][GlcNAc(b1-4)]Man(b1-4)GlcNAc(b1-4)GlcNAc
# In short: as §1
# [11] = biological target: Neu5Ac(a2-6)Gal(b1-4)GlcNAc(b1-3)Gal(b1-3)GlcNAc
# In short: as §1
# [12] = biological target: Neu5Ac(a2-6)Gal(b1-4)GlcNAc(b1-3)Gal(b1-4)GlcNAc
# In short: as §1
# [13] = biological target: Neu5Ac(a2-6)Gal(b1-4)GlcNAc(b1-3)Gal(b1-4)GlcNAc(b1-2)Man(a1-3)[Neu5Ac(a2-6)Gal(b1-4)GlcNAc(b1-3)Gal(b1-4)GlcNAc(b1-2)Man(a1-6)]GalNAc
# In short: as §1
# [14] = biological target: Neu5Ac(a2-6)Gal(b1-4)GlcNAc(b1-3)Gal(b1-4)GlcNAc(b1-3)Gal(b1-4)GlcNAc
# In short: as §1
# [15] = biological target: Neu5Ac(a2-6)Gal(b1-4)GlcNAc(b1-3)Gal(b1-4)GlcNAc(b1-3)Gal(b1-4)GlcNAc(b1-2)Man(a1-3)[Neu5Ac(a2-6)Gal(b1-4)GlcNAc(b1-3)Gal(b1-4)GlcNAc(b1-3)Gal(b1-4)GlcNAc(b1-2)Man(a1-6)]GalNAc
# In short: as §1
# [16] = biological target: Neu5Ac(a2-6)Gal(b1-4)GlcNAc(b1-3)Gal(b1-4)GlcNAc(b1-3)GalNAc
# In short: as §1
# [17] = biological target: Neu5Ac(a2-6)Gal(b1-4)GlcNAc(b1-3)Gal(b1-4)GlcNAc(b1-3)[Neu5Ac(a2-6)Gal(b1-4)GlcNAc(b1-3)Gal(b1-4)GlcNAc(b1-6)]GalNAc
# In short: as §1
# [18] = biological target: Neu5Ac(a2-6)Gal(b1-4)GlcNAc(b1-3)Gal(b1-4)GlcNAc(b1-6)[Gal(b1-3)]GalNAc
# In short: as §1
# [19] = biological target: Neu5Ac(a2-6)Gal(b1-4)GlcNAc(b1-3)Gal(b1-4)[Fuc(a1-3)]GlcNAc(b1-3)Gal(b1-4)[Fuc(a1-3)]GlcNAc
# In short: as §1
# [20] = biological target: Neu5Ac(a2-6)Gal(b1-4)GlcNAc(b1-3)GalNAc
# In short: as §1
# [21] = biological target: Neu5Ac(a2-6)Gal(b1-4)GlcNAc(b1-3)[Neu5Ac(a2-6)Gal(b1-4)GlcNAc(b1-6)]GalNAc
# In short: as §1
# [22] = biological target: Neu5Ac(a2-6)Gal(b1-4)GlcNAc(b1-6)GalNAc
# In short: as §1
# [23] = biological target: Neu5Ac(a2-6)Gal(b1-4)GlcNAc(b1-6)[Gal(b1-3)GlcNAc(b1-3)]Gal(b1-4)Glc
# In short: as §1
# [24] = biological target: Neu5Ac(a2-6)Gal(b1-4)GlcNAc(b1-6)[Gal(b1-3)]GalNAc
# In short: as §1
# [25] = biological target: Neu5Ac(a2-6)Gal(b1-4)GlcNAc6S
# In short: as §1
# [26] = biological target: Neu5Ac(a2-6)GalNAc
# In short: as §1
# [27] = biological target: Neu5Ac(a2-6)GalNAc(b1-4)GlcNAc
# In short: as §1
# [28] = biological target: Neu5Ac(a2-6)GalNAc(b1-4)GlcNAc6S
# In short: as §1
# [29] = biological target: Neu5Ac(a2-6)GlcNAc(b1-4)GlcNAc
# In short: as §1
# [30] = biological target: Neu5Ac(a2-6)GlcNAc(b1-4)GlcNAc(b1-4)GlcNAc
# In short: as §1
binder,measurement,setting,value
"Pa IMPa (Pseudomonas aeruginosa), Q9I5W4 (protein) MSLSTTAFPSLQGENMSRSPIPRHRALLAGFCLAGALSAQAATQEEILDAALVSGDSSQLTDSHLVALRLQQQVERIRQTRTQLLDGLYQNLSQAYDPGAASMWVLPANPDNTLPFLIGDKGRVLASLSLEAGGRGLAYGTNVLTQLSGTNAAHAPLLKRAVQWLVNGDPGAATAKDFKVSVVGVDKTAALNGLKSAGLQPADAACNALTDASCASTSKLLVLGNGASAASLSATVRARLQAGLPILFVHTNGWNQSSTGQQILAGLGLQEGPYGGNYWDKDRVPSSRTRTRSVELGGAYGQDPALVQQIVDGSWRTDYDWSKCTSYVGRTTCDDVPGLSDFSKRVDVLKGALDAYNQKAQNLFALPGTTSLRLWLLWADAVRQNIRYPMDKAADTARFQETFVADAIVGYVREAGAAQKELGSYAGQRQQSMPVSGSEETLTLTLPSAQGFTAIGRMAAPGKRLSIRIEDAGQASLAVGLNTQRIGSTRLWNTRQYDRPRFLKSPDIKLQANQSVALVSPYGGLLQLVYSGATPGQTVTVKVTGAASQPFLDIQPGEDSSQAIADFIQALDADKADWLEIRSGSVEVHAKVEKVRGSIDKDYGGDVQRFIRELNEVFIDDAYTLAGFAIPNQAKTPAIQQECAARGWDCDSETLHKLPGTQHINVDQYAQCGGGCSGNPYDQTWGLNPRGWGESHELGHNLQVNRLKVYGGRSGEISNQIFPLHKDWRVLREFGQNLDDTRVNYRNAYNLIVAGRAEADPLAGVYKRLWEDPGTYALNGERMAFYTQWVHYWADLKNDPLQGWDIWTLLYLHQRQVDKSDWDANKAALGYGTYAQRPGNSGDASSTDGNDNLLLGLSWLTQRDQRPTFALWGIRTSAAAQAQVAAYGFAEQPAFFYANNRTNEYSTVKLLDMSQGSPAWPFP",glycan array binding signal (z-score),[1],0.275
same,glycan array binding signal (z-score),[2],0.217
same,glycan array binding signal (z-score),[3],-0.119
same,glycan array binding signal (z-score),[4],0.791
same,glycan array binding signal (z-score),[5],-0.15
same,glycan array binding signal (z-score),[6],0.752
same,glycan array binding signal (z-score),[7],0.154
same,glycan array binding signal (z-score),[8],-0.238
same,glycan array binding signal (z-score),[9],-0.008
same,glycan array binding signal (z-score),[10],-0.224
same,glycan array binding signal (z-score),[11],-0.527
same,glycan array binding signal (z-score),[12],-0.371
same,glycan array binding signal (z-score),[13],0.457
same,glycan array binding signal (z-score),[14],-0.353
same,glycan array binding signal (z-score),[15],0.335
same,glycan array binding signal (z-score),[16],0.067
same,glycan array binding signal (z-score),[17],0.683
same,glycan array binding signal (z-score),[18],-0.002
same,glycan array binding signal (z-score),[19],0.068
same,glycan array binding signal (z-score),[20],-0.376
same,glycan array binding signal (z-score),[21],-0.063
same,glycan array binding signal (z-score),[22],0.506
same,glycan array binding signal (z-score),[23],-0.446
same,glycan array binding signal (z-score),[24],-0.253
same,glycan array binding signal (z-score),[25],-0.247
same,glycan array binding signal (z-score),[26],-0.489
same,glycan array binding signal (z-score),[27],1.12
same,glycan array binding signal (z-score),[28],-0.077
same,glycan array binding signal (z-score),[29],-0.303
same,glycan array binding signal (z-score),[30],-0.358
